Measurements reported in paper PMC4336329 (PLoS ONE, 2015).
Among all 310,000 compounds or so, about 14,000 (4.5%) showed an effect of 50% or more. Effects have a minus sign here. The list shows a part of the results.

target: human ether-à-go-go-related gene (hERG) potassium channel (human, UniProt Q12809); assay: primary screen, population patch clamp on CHO cells stably expressing hERG
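Further: peak tail current of the secondary pulse compared with the same well before compound.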

human ether-à-go-go-related gene (hERG) potassium channel, sequence (Q12809 whole entry, looked up): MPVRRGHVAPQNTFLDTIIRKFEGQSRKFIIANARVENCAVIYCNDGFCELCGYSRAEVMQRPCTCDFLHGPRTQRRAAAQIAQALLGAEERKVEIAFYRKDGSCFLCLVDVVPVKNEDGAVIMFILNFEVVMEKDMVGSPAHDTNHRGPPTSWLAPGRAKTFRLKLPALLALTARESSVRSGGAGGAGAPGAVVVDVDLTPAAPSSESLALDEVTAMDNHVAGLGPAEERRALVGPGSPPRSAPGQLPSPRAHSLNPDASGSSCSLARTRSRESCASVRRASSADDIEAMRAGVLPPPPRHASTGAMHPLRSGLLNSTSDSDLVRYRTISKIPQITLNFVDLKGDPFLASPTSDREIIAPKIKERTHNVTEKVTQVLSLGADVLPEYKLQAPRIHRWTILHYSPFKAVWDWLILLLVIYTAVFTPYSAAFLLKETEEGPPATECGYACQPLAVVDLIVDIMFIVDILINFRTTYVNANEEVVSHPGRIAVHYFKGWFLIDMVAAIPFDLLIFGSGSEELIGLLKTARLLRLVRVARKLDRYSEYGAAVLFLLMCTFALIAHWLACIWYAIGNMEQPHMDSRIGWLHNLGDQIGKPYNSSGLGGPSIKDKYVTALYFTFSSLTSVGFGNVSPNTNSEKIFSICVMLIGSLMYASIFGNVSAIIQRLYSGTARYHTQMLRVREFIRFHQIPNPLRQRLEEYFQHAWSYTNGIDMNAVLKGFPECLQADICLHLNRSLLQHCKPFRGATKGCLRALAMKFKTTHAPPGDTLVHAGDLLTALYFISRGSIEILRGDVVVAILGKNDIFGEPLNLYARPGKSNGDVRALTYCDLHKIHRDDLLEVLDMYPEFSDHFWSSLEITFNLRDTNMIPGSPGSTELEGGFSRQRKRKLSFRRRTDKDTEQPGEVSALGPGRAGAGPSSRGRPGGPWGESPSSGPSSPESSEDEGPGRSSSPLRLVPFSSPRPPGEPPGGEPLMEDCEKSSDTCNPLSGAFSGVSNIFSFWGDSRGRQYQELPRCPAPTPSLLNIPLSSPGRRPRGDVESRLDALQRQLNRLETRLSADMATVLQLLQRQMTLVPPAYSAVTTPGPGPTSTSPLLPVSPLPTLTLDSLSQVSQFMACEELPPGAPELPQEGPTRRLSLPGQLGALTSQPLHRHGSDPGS

SMILES | hERG current change (%, negative = inhibition) at 10uM
O=c1c2cnn(-c3ccccc3)c2ncn1Cc1cccc(Cl)c1 | 17.7%
CC(C)CCOc1ccc(C2=NNC(=O)CC2)cc1 | -1%
Cc1cccc(/C=N/NC(=O)C2CCCNC2=O)c1 (centres unmarked) | 19%
COc1ccc(CCCNC(=O)C2CCC(=O)N(CCc3cccc(F)c3)C2)cc1 (centres unmarked) | -53.1%
CCCNS(=O)(=O)c1ccc(OCC(=O)NCCCOC)cc1 | 16.9%
COc1ccc(-c2nc(-c3ccc(Br)cc3)no2)c(OC)c1 | -3.97%
Cc1ccc(NC(=O)C2=C(O)CCn3c2nc2ccccc23)cc1 | 0.473%
Cc1nn(-c2ccc3ccccc3c2)c(=O)c2ccccc12 | 16.8%
CC(C)CCn1c2ccccc2c2cc(CC(N)=O)ccc21 | 6.69%
Cc1csc(SCCN2C(=O)c3ccccc3C2=O)n1 | 2.6%
COc1ccc(Cc2nc3ccc(C(=O)NC4CCOC4)cc3o2)cc1 (centres unmarked) | 15.1%
Cc1ccc(C(=O)NCCCc2ccccc2)c(C)c1 | 1.29%
CC1(C)CC(=O)C(C=Nc2ccccc2Sc2ccccc2)=C(O)C1 | -4.14%
CCc1nnc(NS(=O)(=O)c2ccc(NCc3cc(Br)ccc3O)cc2)s1 | 7.53%
O=c1[nH]c(SCc2cccc(Cl)c2)nc2ccccc12 | -2.62%
CCOc1ccc(S(=O)(=O)/N=C(\N)c2ccccc2)cc1 | -7.03%
CCc1nc(SCC(=O)N2CCOCC2)c2c(=O)n(C)c(=O)n(C)c2n1 | -3.88%
C=C(C)c1cccc(C(C)(C)NC(=O)N2CCN(c3ccccc3)CC2)c1 | 5.89%
COc1ccc(OCC(=O)Nc2ccc(NC(=O)c3ccco3)cc2)cc1 | -0.279%
CCN(CC)c1ccc(CNCc2cccs2)cc1.Cl | -19.2%
COCCCN(C(=O)CSCc1ccc(C)cc1)c1c(N)n(Cc2ccccc2)c(=O)[nH]c1=O | 6.9%
O=C(c1ccc(Cl)cc1)C1CCCN(Cc2cnn(-c3ccccc3)c2)C1 (centres unmarked) | -74.6%
OC(CN1CCC(Cc2ccccc2)CC1)C(F)(F)F (centres unmarked) | 5.97%
O=C1O[C@H]([C@@H](O)CO)C(O)=C1O | 7.45%
O=[N+]([O-])c1ccc(F)cc1Oc1nc(-c2cccnc2)nc2ccccc12 | 16.6%
O=C(CCC(=O)N1CCOc2ccccc21)NCCCN1CCN(Cc2ccccc2)CC1 | -79.8%
